{"source": "paper PMC4336329", "about": "(PLoS ONE, 2015)", "note": "In all, about 310,000 compounds went through this assay and about 2,200 (0.71%) showed an effect of 50% or more. Effects have a minus sign here. The list shows a part of the results."}
{"target": "human ether-à-go-go-related gene (hERG) potassium channel (human, UniProt Q12809)", "sequence (Q12809 whole entry, looked up)": "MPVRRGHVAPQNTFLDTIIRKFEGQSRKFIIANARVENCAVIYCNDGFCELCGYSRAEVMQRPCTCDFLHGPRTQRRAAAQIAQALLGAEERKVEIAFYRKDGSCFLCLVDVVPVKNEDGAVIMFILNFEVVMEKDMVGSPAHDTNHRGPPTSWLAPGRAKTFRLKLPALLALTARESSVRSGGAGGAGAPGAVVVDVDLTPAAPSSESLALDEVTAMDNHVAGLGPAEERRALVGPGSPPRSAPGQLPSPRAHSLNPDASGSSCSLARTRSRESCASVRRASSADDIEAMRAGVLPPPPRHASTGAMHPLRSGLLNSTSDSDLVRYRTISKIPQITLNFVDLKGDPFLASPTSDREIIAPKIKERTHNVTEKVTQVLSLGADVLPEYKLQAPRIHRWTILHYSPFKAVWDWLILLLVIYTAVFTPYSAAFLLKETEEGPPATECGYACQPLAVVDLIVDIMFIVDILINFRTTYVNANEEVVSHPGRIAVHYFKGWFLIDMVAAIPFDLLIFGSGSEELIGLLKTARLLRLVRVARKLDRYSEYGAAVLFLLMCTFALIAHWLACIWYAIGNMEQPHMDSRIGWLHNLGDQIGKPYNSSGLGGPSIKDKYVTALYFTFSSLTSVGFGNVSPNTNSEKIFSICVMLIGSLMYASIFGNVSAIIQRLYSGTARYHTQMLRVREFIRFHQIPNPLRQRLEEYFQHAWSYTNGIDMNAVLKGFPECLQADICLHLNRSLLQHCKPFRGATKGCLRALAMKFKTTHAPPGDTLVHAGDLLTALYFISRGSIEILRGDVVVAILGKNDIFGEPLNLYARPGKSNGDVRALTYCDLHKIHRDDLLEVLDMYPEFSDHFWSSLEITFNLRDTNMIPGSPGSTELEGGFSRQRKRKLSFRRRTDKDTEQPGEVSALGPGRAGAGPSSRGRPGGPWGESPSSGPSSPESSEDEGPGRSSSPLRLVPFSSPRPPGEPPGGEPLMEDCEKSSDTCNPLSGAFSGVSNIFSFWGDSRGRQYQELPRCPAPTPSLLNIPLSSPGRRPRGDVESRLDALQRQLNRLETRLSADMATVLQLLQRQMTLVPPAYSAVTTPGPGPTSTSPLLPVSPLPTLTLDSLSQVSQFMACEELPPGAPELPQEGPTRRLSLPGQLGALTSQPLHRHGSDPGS", "assay": "primary screen, population patch clamp on CHO cells stably expressing hERG", "units": {"hERG current change (%, negative = inhibition) at 1uM": "%"}}
{"smiles": "O=C(NCc1cccnc1)C1c2ccccc2C(=O)N1Cc1ccccc1", "note": "(centres unmarked)", "hERG current change (%, negative = inhibition) at 1uM": 6.72}
{"smiles": "COC(=O)c1ccc(CN2CCCC(C(=O)c3cc(F)ccc3OC)C2)cc1", "note": "(centres unmarked)", "hERG current change (%, negative = inhibition) at 1uM": -8.3}
{"smiles": "CCC(CC)c1nnc(NC(=O)C2COc3ccccc3O2)s1", "note": "(centres unmarked)", "hERG current change (%, negative = inhibition) at 1uM": 4.57}
{"smiles": "CCC(=O)Nc1c2c(nn1-c1ccccc1C)CSC2", "hERG current change (%, negative = inhibition) at 1uM": 15.8}
{"smiles": "COc1ccc(Nc2cc(C)nc3ccccc23)cc1.Cl", "hERG current change (%, negative = inhibition) at 1uM": -15.6}
{"smiles": "NC(=O)C1(NC(=O)[C@@H]2CC3(CC(c4cccc(NC(=O)[C@@H]5CCC(=O)N5)c4)=NO3)CN2C(=O)Cc2ccc(C(F)(F)F)cc2)CC1", "note": "(some centres unmarked)", "hERG current change (%, negative = inhibition) at 1uM": 12.7}
{"smiles": "CN(C)c1ccc(C2NCCS2)cc1", "note": "(centres unmarked)", "hERG current change (%, negative = inhibition) at 1uM": 15.4}
{"smiles": "CCn1cc(/C=C/C(=O)Nc2c(C)nn(Cc3ccccc3)c2C)cn1", "hERG current change (%, negative = inhibition) at 1uM": 6.45}
{"smiles": "COc1ccccc1Nc1ncc(C(=O)N2CCN(Cc3ccc(OC)c(OC)c3OC)CC2)c2ccccc12", "hERG current change (%, negative = inhibition) at 1uM": -3.69}
{"smiles": "Cc1ccccc1C(=O)N(C)Cc1ccccc1", "hERG current change (%, negative = inhibition) at 1uM": 3.31}
{"smiles": "CC(C)Cn1c(SCC(=O)N2CCOCC2)nc2ccccc2c1=O", "hERG current change (%, negative = inhibition) at 1uM": 5.28}
{"smiles": "Cc1ccc(OCCCC(=O)Nc2ccc(N3CCOCC3)cc2)c(C)c1", "hERG current change (%, negative = inhibition) at 1uM": 6.49}
{"smiles": "O=C(N/N=C/c1c(O)n(Cc2ccc(F)cc2)c(=S)[nH]c1=O)c1ccncc1", "hERG current change (%, negative = inhibition) at 1uM": 3.6}
{"smiles": "O=C1CCCN1CCCNS(=O)(=O)c1ccc(F)c(F)c1", "hERG current change (%, negative = inhibition) at 1uM": 13.5}
{"smiles": "CCOC(=O)C1=C(N)N2C(=O)C(C)SC2=C(C(=O)OC)C1c1cccc(OC)c1", "note": "(centres unmarked)", "hERG current change (%, negative = inhibition) at 1uM": 2.16}
{"smiles": "COc1ccc(-c2[nH]ncc2CNCCCSC)cc1F", "hERG current change (%, negative = inhibition) at 1uM": -3.56}
{"smiles": "Cc1cc2ccccc2c(=O)[nH]1", "hERG current change (%, negative = inhibition) at 1uM": 15.5}
{"smiles": "CCCCn1c(N)c(N(CCOC)C(=O)CCNC(=O)c2ccc(Cl)cc2)c(=O)[nH]c1=O", "hERG current change (%, negative = inhibition) at 1uM": 5.21}
{"smiles": "COC(=O)C1=C(c2c(C)noc2C)C[C@@H]2CC[C@H]1N2C(=O)NCCOc1ccc(OC)cc1", "hERG current change (%, negative = inhibition) at 1uM": 12.3}
{"smiles": "COc1c(C)cccc1C(=O)Nc1ccc(CN2CCCCC2)cc1", "hERG current change (%, negative = inhibition) at 1uM": -6.71}
{"smiles": "CN(CCCN1CCOCC1)C(=O)c1cc(COc2c(F)cccc2F)on1", "hERG current change (%, negative = inhibition) at 1uM": 8.01}
{"smiles": "COc1cc(C)nc(N2CCC(C(=O)NC3CCCCC3)CC2)n1", "hERG current change (%, negative = inhibition) at 1uM": 4.74}
{"smiles": "COc1ccc(/C=C/c2ccncc2)c2ccccc12", "hERG current change (%, negative = inhibition) at 1uM": 13.7}
{"smiles": "O=C(c1cc(COc2ccc(F)cc2Cl)on1)N1CCC(OCc2cccnc2)CC1", "hERG current change (%, negative = inhibition) at 1uM": -19.8}
{"smiles": "CCC(O)(CC)C(=O)N/N=C/c1cc(Br)cc(Br)c1O", "hERG current change (%, negative = inhibition) at 1uM": 9.26}
{"smiles": "CN(C)C(=O)CN(c1ccc(F)c(Cl)c1)S(C)(=O)=O", "hERG current change (%, negative = inhibition) at 1uM": 14.6}
{"smiles": "CC(C)OCCCn1c(=O)c2ccccc2n2c(CCC(=O)NCc3ccccn3)nnc12", "hERG current change (%, negative = inhibition) at 1uM": 11}
{"smiles": "O=C(CN1C(=O)/C(=C/c2ccccc2F)SC1=S)NC1C=CS(=O)(=O)C1", "note": "(centres unmarked)", "hERG current change (%, negative = inhibition) at 1uM": 11.4}
{"smiles": "COc1ccc(CNC(=O)C[C@H]2C(=O)N(c3ccccc3)C[C@@H]2Cc2ccccc2)cc1", "hERG current change (%, negative = inhibition) at 1uM": -21}
{"smiles": "CCC(=O)Nc1cccc(-c2nc3ccccc3c(=O)o2)c1", "hERG current change (%, negative = inhibition) at 1uM": 10.7}
{"smiles": "Cc1cc2[nH]c(=O)c(=O)[nH]c2cc1S(=O)(=O)NCc1ccc(Cl)cc1", "hERG current change (%, negative = inhibition) at 1uM": 10.5}
{"smiles": "Cc1cccc(-c2nnc(-c3ccc(N)cc3)o2)c1", "hERG current change (%, negative = inhibition) at 1uM": 10.9}
{"smiles": "CN1C(=S)SC(N(O)C(=O)NC2CCCCC2)C1(C)C", "note": "(centres unmarked)", "hERG current change (%, negative = inhibition) at 1uM": -8.74}
{"smiles": "CC(C)(C)CN1CCNC(=O)C1CC(=O)N1CCC(C(=O)N2CCOCC2)CC1", "note": "(centres unmarked)", "hERG current change (%, negative = inhibition) at 1uM": 6.25}
{"smiles": "O=C(c1cnsn1)N1CCC(CO)(Cc2ccc(Cl)cc2)CC1", "hERG current change (%, negative = inhibition) at 1uM": 2.82}
{"smiles": "C[C@H](NC(=O)c1nc[nH]c1C(=O)NCCCCCNC(=O)OC(C)(C)C)C(=O)OC(C)(C)C", "hERG current change (%, negative = inhibition) at 1uM": 14.1}
{"smiles": "Nc1nc(SCC(=O)NCCOCCO)nc2sc3c(c12)CCCC3", "hERG current change (%, negative = inhibition) at 1uM": 15}
{"smiles": "COc1cc2c(cc1NC(=S)NC(=O)c1c(OC)cccc1OC)oc1ccccc12", "hERG current change (%, negative = inhibition) at 1uM": 13.7}
{"smiles": "Clc1ccc(CON/C=N/c2ncnc3sccc23)c(Cl)c1", "hERG current change (%, negative = inhibition) at 1uM": 5.41}
{"smiles": "COc1ccc(C2c3[nH]c4ccccc4c3CCN2C(=O)Cc2nonc2C)c(F)c1", "note": "(centres unmarked)", "hERG current change (%, negative = inhibition) at 1uM": 16.1}
{"smiles": "COC(=O)c1sccc1NC(=O)c1ccccc1C(=O)O", "hERG current change (%, negative = inhibition) at 1uM": 14.2}
{"smiles": "COc1ccc(-c2csc(NC(=O)c3ccccc3F)n2)cc1", "hERG current change (%, negative = inhibition) at 1uM": 10}
{"smiles": "COC(=O)c1ccc(C2c3c(oc4ccccc4c3=O)C(=O)N2CCCN2CCOCC2)cc1", "note": "(centres unmarked)", "hERG current change (%, negative = inhibition) at 1uM": 7.41}
{"smiles": "O=C(NCCc1ccc(Cl)cc1)C1CC(=O)N(CCc2ccccc2)C1", "note": "(centres unmarked)", "hERG current change (%, negative = inhibition) at 1uM": -13.6}
